# The full ranking holds about 110,000 compounds; the median of “z-score” is about -0.1, and the highest 2% start at about 2. The list shows a part of the results.
# Biological target: Metabotropic glutamate receptor 8 (Rattus norvegicus) (UniProt P70579)
# Experiment: mGluR8 Gi/Go-coupled signaling modulation – cell-based, rat, thallium flux, HTS, primary screen (AID 488969)
# Conditions: HEK293 rat mGluR8, GIRK (G protein-gated inwardly rectifying potassium channel) thallium flux, FluoZin2; at 10 µM; stronger effect = higher value; submaximal glutamate (EC20) added with thallium
# UniProt P70579, sequence (P70579 whole entry, looked up): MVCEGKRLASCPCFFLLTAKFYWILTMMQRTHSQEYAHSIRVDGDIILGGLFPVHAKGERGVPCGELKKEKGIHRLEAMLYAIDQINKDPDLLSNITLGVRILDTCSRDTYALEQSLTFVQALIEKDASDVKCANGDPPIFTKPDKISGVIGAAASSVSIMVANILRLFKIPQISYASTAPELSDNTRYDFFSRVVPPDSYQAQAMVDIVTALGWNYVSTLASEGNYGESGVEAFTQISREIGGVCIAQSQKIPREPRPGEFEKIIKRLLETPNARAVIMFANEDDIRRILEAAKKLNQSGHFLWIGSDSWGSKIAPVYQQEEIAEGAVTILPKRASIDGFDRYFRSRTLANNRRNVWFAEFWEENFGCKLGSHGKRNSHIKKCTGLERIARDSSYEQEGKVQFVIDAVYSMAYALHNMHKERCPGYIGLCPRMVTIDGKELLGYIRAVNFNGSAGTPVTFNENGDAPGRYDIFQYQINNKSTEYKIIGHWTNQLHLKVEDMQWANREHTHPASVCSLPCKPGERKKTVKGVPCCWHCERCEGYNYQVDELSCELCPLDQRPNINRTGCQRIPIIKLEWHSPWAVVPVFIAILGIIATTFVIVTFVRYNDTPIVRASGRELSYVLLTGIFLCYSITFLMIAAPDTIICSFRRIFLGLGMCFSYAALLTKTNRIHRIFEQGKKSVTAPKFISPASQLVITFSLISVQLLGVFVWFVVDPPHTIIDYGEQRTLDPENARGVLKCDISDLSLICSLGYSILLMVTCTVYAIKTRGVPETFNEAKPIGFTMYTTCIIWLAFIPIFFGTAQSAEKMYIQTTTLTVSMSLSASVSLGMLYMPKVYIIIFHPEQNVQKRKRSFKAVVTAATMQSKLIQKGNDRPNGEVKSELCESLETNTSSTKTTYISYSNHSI
row,SMILES,z-score
1,N=C1C(c2nc(-c3ccc(F)cc3)cs2)=C(O)CN1Cc1ccc(Cl)cc1,0.268
2,CCc1ccc(OCCCOc2ccc(C=O)cc2)cc1,0.232
3,Cc1cccc(OCC(=O)O/N=C(\N)c2ccc(Cl)cc2)c1,0.515
4,Fc1c(F)c(C(F)(F)F)c(F)c(F)c1N/N=C\c1cccs1,0.316
5,Cc1nc2ccc(F)cc2cc1C(=O)NCc1ccco1,-0.0284
6,CCSc1nnc(NC(=O)CSc2nc3c(cc2C#N)CCCC3)s1,-0.18
7,CS(=O)(=O)c1ccc(N2CCN(C3CC(=O)NC3=O)CC2)cc1 (configuration not stated),0.162
8,O=S(=O)(c1cc(Cl)ccc1Cl)N1CC2CCCN2c2ccc(C(F)(F)F)cc21 (configuration not stated),-1.18
9,COc1ccccc1OC(=O)c1ccc2nsnc2c1,-0.439
10,Cn1c(CCNC(=O)c2ccc(Cl)cc2)n[nH]c1=S,-0.159
11,COc1ccc(/C=N/NC(=O)c2[nH]ncc2Br)c(OC)c1,-0.26
12,Cc1cnc(NC(=O)c2cc3c(s2)CCCC3)s1,0.0107
13,CN1C(=O)CCC1(O)c1ccccc1 (configuration not stated),-0.249
14,Cc1ccc(S(=O)(=O)N2C(=O)CCC2C(=O)Nn2cnnc2)cc1 (configuration not stated),-0.0708
15,CC(C)(C)C1CCc2onc(C(=O)NCc3ccc(F)cc3)c2C1 (configuration not stated),-0.198
16,O=C(CNC(=O)Cc1ccccc1)NCC(=O)OCc1ccc(C(=O)c2ccccc2)cc1,-0.175

row,SMILES,z-score
1,c1coc(-c2nc3nc4ccccc4nc3n2CC2CCCO2)c1 (configuration not stated),-0.0828
2,Cc1ccc(-n2ncc3c(=O)n(CC(=O)N4CCN(c5ccccc5F)CC4)cnc32)cc1C,-1.24
3,CCOC(=O)c1nn(-c2cccc(C)c2)c2nc(-c3ccccc3)c(C#N)c(=O)n12,-0.167
4,CCN(CC)S(=O)(=O)c1cccc(C(=O)NN2Cc3ccccc3C2=N)c1,-0.144
5,CCOC(=O)C1=C(C)S/C(=C\N(C)C)C1=O,-0.721
6,O=C(CCC(=O)c1cccs1)Nc1ccccc1F,0.0892
7,CC1(C)Cc2ccccc2-c2nnnn21,0.437
8,O=C(COc1ccccc1Cl)NCc1ccco1,0.603
9,Nc1nc(NCc2c(F)cccc2Cl)nn1-c1ccccc1,-0.142
10,O=C(c1ccco1)N1CCN(C(=O)c2[nH]ncc2[N+](=O)[O-])CC1,-0.0249
11,O=C(CSc1nnc(CNC(=O)c2ccccc2F)o1)c1ccccc1,1.07
12,Cc1ccccc1NC(=O)c1cn(-c2ccccc2)nc1-c1ccccc1,0.316
13,CC(NC(=O)CSc1nnc(-c2cccc(S(=O)(=O)N3CCCCC3)c2)o1)C12CC3CC(CC(C3)C1)C2 (configuration not stated),-0.897
14,O=C(NCCCNc1ccc(C(F)(F)F)cc1[N+](=O)[O-])c1cc(F)c(F)cc1Cl,-0.349
15,COc1cc(/C=N/O)cc(Br)c1OC,-0.12
16,CN1C=CC2=C(C#N)C(N)C(C#N)(C#N)C(c3ccccc3)C2C1 (configuration not stated),-2.28

# Source: PubChem BioAssay AID488969 (Vanderbilt High Throughput Screening Facility, 2010)
